Test results: PubChem BioAssay AID686979 (National Center for Advancing Translational Sciences (NCATS), 2013)
Among all 420,000 compounds or so, about 50,000 (12%) were called active. Inconclusive means that the source gave no clear call. Such entries were picked first, then a sample of the others. Calls follow the shape of the dose curve; as a rule, active = well fitted inhibition curve with a large enough effect; inconclusive = small, poorly fitted or top-dose-only effect; inactive = flat fitted curve, though single readings scatter. No potency is given beside an inconclusive call; the fits are too rough.

Test: qHTS for Inhibitors of human tyrosyl-DNA phosphodiesterase 1 (TDP1): qHTS in cells in presence of CPT; also: nearly all actives have a fitted effect of over 55% in size
Settings: chicken DT40 Tdp1-/-;hTDP1 cells + 20 nM CPT, ATP luminescence, 48 h; activity change, negative = growth inhibition: at 46.2 µM (top of the series)
In short: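 Cell growth measured by CellTiter-Glo luminescence after a minimum 48 h, 37 C compound exposure with 20 nM CPT in Tdp1-knockout DT40 cells stably expressing hTDP1, seeded 400/well; qHTS titration format.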
% is scaled to controls: 0 for no effect and ±100 for the full control effect; potency is read from the fitted curve at half-maximal effect; tags tell the direction and shape of the fitted curve.

Structure (SMILES) | activity change, negative = growth inhibition | Potency
CCOC(=O)C(CCCCC(NC(C)=O)(C(=O)OCC)C(=O)OCC)(NC(C)=O)C(=O)OCC | inactive: 15.6% | 
O=C(NC1CCCCCC1)c1ccc(CS(=O)c2ccc(Br)cc2)o1 (stereo not given) |  | inconclusive [inhibitor, single point]
O=C(N/N=C/c1c[nH]c2ccccc12)c1[nH]c2ccc(Br)cc2c1-c1ccccc1 |  | active: 5.8 µM
CCc1ccccc1NC(=O)Cn1c(=O)n(-c2ccc(C)c(C)c2)c(=O)c2oc3ccccc3c21 |  | active: 14.6 µM
Cc1ccc(NC(=O)CSCc2cnn(-c3ccccc3)c2-n2cccc2)c(Cl)c1 |  | inconclusive [inhibitor, single point]
OCc1ccc2c(c1)c(-c1ccc3c(c1)OCCO3)c(-c1ccccc1)n2-c1ccccc1 |  | active: 18.4 µM
Cc1[nH]n2c(=O)cc(-c3ccc([N+](=O)[O-])cc3)nc2c1-c1ccccc1 |  | active: 11.6 µM
O=C(C1CCN(S(=O)(=O)c2cccc3nsnc23)CC1)N1CC=C(c2ccccc2)CC1 |  | active: 18.4 µM
CC1CCN(CCCNC(=O)c2ccc3c(=O)n(CCc4ccccc4)c(=O)[nH]c3c2)CC1 |  | inconclusive [inhibitor, partial curve]
CCCN(CCC)S(=O)(=O)c1cc(Br)cc2c1N(C(=O)CC)CC2 |  | active: 9.2 µM
Fc1ccc(CSc2ncnc3c2oc2ccccc23)cc1 |  | inconclusive [inhibitor, single point]
COc1ccc(CCNc2nc3ccccc3c3nc(-c4cccc(C)c4)nn23)cc1OC |  | inconclusive [inhibitor, full curve]
Cc1ccc(CCNC(=O)c2cccc(Nc3nc4ccccc4nc3-n3nc(C)cc3C)c2)cc1 | inactive: -25% | 
CC(C)CN1CC(=O)N2C(c3ccccc3)c3[nH]c4ccccc4c3C[C@H]2C1=O (stereo not given in full) | inactive: -43.3% | 
CCOc1cc(CNc2cccc3[nH]c(C)nc23)ccc1OC |  | inconclusive [inhibitor, single point]
CN(CC(=O)N1CCN(Cc2ccccc2)CC1)S(=O)(=O)c1ccc(F)cc1 | inactive: -18.3% | 
CCOC(=O)c1c(C)n(OCc2ccccc2)c2ccc3c(no[n+]3[O-])c12 |  | inconclusive [inhibitor, single point]
N#C/C(=C\c1ccc(OCC(N)=O)cc1)c1ccccc1 | inactive: -17.6% | 
CCN(c1ccccc1)S(=O)(=O)c1ccc(C(=O)N(CCCN(C)C)c2nc3c(C)cccc3s2)cc1 |  | inconclusive [inhibitor, single point]
CCOC(=O)c1ccc(NC(=O)CCc2c(C)nc3c(c(C)nn3C(C)(C)C)c2C)cc1 |  | active: 16.4 µM
CC(C)(C)CC(C)(C)NCC(O)COc1ccc2c(c1)CCC2 (stereo not given) |  | inconclusive [inhibitor, single point]
Cc1cc(C)c2c3c(sc2n1)C(c1cccc(F)c1)C(C#N)=C(N)O3 (stereo not given) |  | inconclusive [inhibitor, single point]
CC(C)C(=O)NC(=S)Nc1ccc(S(=O)(=O)NC(C)(C)C)cc1 |  | inconclusive [inhibitor, full curve, poor fit]
O=C(COC(=O)c1ccccn1)NNC(=O)c1ccc([N+](=O)[O-])cc1 | inactive: 6.48% | 

Structure (SMILES) | activity change, negative = growth inhibition | Potency
CCc1ccc(-n2nc(C)c3c(C(=O)N4CCN(c5cccc(Cl)c5)CC4)cc(C)nc32)cc1 |  | inconclusive [inhibitor, single point]
CCN(c1ccccc1)S(=O)(=O)c1ccc(C(=O)Nc2cccc(NC(C)=O)c2)cc1 |  | inconclusive [inhibitor, single point]
Cc1ccc(S(=O)(=O)N2c3ccccc3OCC2c2ccccc2)cc1 (stereo not given) |  | active: 29.1 µM
COc1cc(OC)c(NC(=O)NCc2cccn2Cc2ccccc2)cc1Cl |  | inconclusive [inhibitor, single point]
Cc1c(NC(=S)NC(=O)C(C)(C)C)cccc1[N+](=O)[O-] | inactive: -2.55% | 
COc1ccc(CN2CC[C@@H](N3CCOCC3)[C@H](O)C2)cc1F | inactive: 20.2% | 
CCOc1cc(C(=O)OCc2cc(=O)n3nc(C4CC4)sc3n2)cc(OCC)c1OCC |  | inconclusive [inhibitor, single point]
CC(C)CCNC(=O)c1ccc(Cn2c(SCC(N)=O)nc3ccccc3c2=O)cc1 | inactive: -23% | 
O=C(N/N=C\c1ccccc1)c1sccc1-n1cccc1 | inactive: 3.19% | 
CCC1([N+](=O)[O-])COC(c2ccc(C(C)C)cc2)OC1 (stereo not given) |  | inconclusive [inhibitor, full curve, poor fit]
CC(=O)OCC(=O)C1CCC2C3CCC4=CC(=O)C=CC4(C)C3CCC12C (stereo not given) |  | inconclusive [inhibitor, single point]
O=C1COC(c2ccccc2)C2CCCCN12 (stereo not given) |  | inconclusive [inhibitor, single point]
Cc1ccc(F)cc1C(=O)N1CCCCC1c1cc(C(=O)Nc2ccc(F)c(Cl)c2)no1 (stereo not given) |  | active: 20.6 µM
CC(C)CC(NC(=O)C1CCCCC1)C(=O)N1CCN(c2ccccn2)CC1 (stereo not given) |  | inconclusive [inhibitor, partial curve, poor fit]
C(=C\c1ccnc2ccccc12)/c1ccc2c(c1)OCO2 |  | inconclusive [inhibitor, single point]
CCN(CC)Cc1c(O)ccc2c1O/C(=C\C=C\c1ccccc1)C2=O |  | inconclusive [inhibitor, single point]
O=C(Nc1nc2ccccc2[nH]1)c1cccc(Br)c1 |  | inconclusive [inhibitor, single point]
Cc1[nH]n(-c2ccccc2)c(=O)c1/C=N/NC(=O)COc1ccccc1[N+](=O)[O-] |  | active: 5.8 µM
COc1cc(NC(=O)c2ccc(F)cc2)c(OC)cc1NC(=O)CN1CCOCC1 |  | inconclusive [inhibitor, single point]
Cc1nn(C)c(C)c1S(=O)(=O)N1CCCC(C(=O)NC2CCCCCC2)C1 (stereo not given) |  | active: 18.4 µM
CSc1nc2c(c(=O)n1-c1ccc(F)cc1)SCC2 | inactive: 1.23% | 
CC(C)(C)c1ccc(OCCCC(=O)Nc2nnc(C3CC3)s2)cc1 |  | inconclusive [inhibitor, single point]
CC(NC(=O)c1cccnc1)c1nnc2n1CCN(Cc1ccc(F)cc1F)CC2 (stereo not given) | inactive: 23.7% [at 9.04 µM] | 
Cc1ccccc1NC(=O)Cn1cnc2c(oc3nc4c(cc32)CCCC4)c1=O |  | inconclusive [inhibitor, single point]

Structure (SMILES) | activity change, negative = growth inhibition | Potency
ON=C1C2CC=C(c3ccccc3)C1CCC2 (stereo not given) |  | inconclusive [inhibitor, single point]
Cc1ccc(S(=O)(=O)NCCc2nnc3ccc(SCC(=O)Nc4ccc(OC(F)(F)F)cc4)nn23)cc1 |  | inconclusive [inhibitor, partial curve]
Cc1ccc(-c2csc(NC(=O)c3cc([N+](=O)[O-])ccc3N3CCOCC3)n2)cc1 |  | inconclusive [inhibitor, single point]
CCS(=O)(=O)c1cccc(C(=O)N2CCN(c3nc4c(C)ccc(Cl)c4s3)CC2)c1 |  | active: 16.4 µM
COC(=O)/C=C/C(=O)Nc1cccc(C(F)(F)F)c1 |  | active: 9.2 µM
CCCCCn1c(CNC(=O)c2ccc(F)cc2)nc2ccccc21 |  | active: 16.4 µM
COc1ccc(NS(=O)(=O)c2ccc(NC(=S)NC(=O)C(C)C)cc2)cc1 |  | active: 18.4 µM
COC(=O)c1ccc(CSc2nc3c([nH]c4ccccc43)c(=O)n2-c2cc(C)cc(C)c2)o1 |  | inconclusive [inhibitor, single point]
C=C(C)COc1cc2oc(=O)c(CC(=O)N3C[C@H]4C[C@@H](C3)c3cccc(=O)n3C4)c(C)c2cc1Cl |  | inconclusive [inhibitor, single point]
Cc1cccc(-c2onc3ccc(C4(C)OCCO4)cc23)c1 |  | inconclusive [inhibitor, single point]
CCCCCCCCCc1nc2sc3c(c2c(=O)n1NC(=O)c1ccccc1[N+](=O)[O-])CC(C)(C)OC3 |  | inconclusive [inhibitor, single point]
O=C(NC1CCN(Cc2ccccc2)CC1)c1cc(S(=O)(=O)Nc2ccc(F)cc2)ccc1Cl |  | active: 23.1 µM
C[C@]12C(=O)N(c3ccccc3)C(=O)N1[C@@H]1c3ccccc3OC[C@@H]1[C@H]2c1ccccc1 |  | active: 14.6 µM
C=CCC1(CC=C)CCCN1C(=O)C1CCC(=O)N(Cc2ccc(Cl)cc2)C1 (stereo not given) |  | active: 10.3 µM
CSc1cccc(NC(=O)C2CCCN(S(=O)(=O)c3ccc(F)cc3)C2)c1 (stereo not given) |  | active: 10.3 µM
Cc1ccc(S(=O)(=O)NCCC(=O)NCCSc2ccc(Br)cc2)cc1 | inactive: -5.05% | 
COc1ccc(OC)c(CCNC(=O)C(C)n2c(C)c3cnn(-c4ccccc4)c(=O)c3c2C)c1 (stereo not given) |  | active: 20.6 µM
Cc1[nH]c2ccccc2c1/C=C/c1cnc2ccccc2n1 |  | inconclusive [inhibitor, single point]
COC(=O)N1CCC[C@@]2(CCN(C(=O)Nc3ccc(OC)cc3)C2)C1 | inactive: 10.5% | 
COc1ccccc1CNS(=O)(=O)c1ccc(N2CCCCS2(=O)=O)cc1 |  | inconclusive [inhibitor, single point]
C[C@@H](NC(=O)[C@@H]1Cc2ccccc2CN1)C(=O)NC1CCCCC1 | inactive: -1.56% | 
CC1CN(c2nc3ccccc3nc2C(C#N)C(=O)NCc2ccc3c(c2)OCO3)CC(C)O1 (stereo not given) |  | inconclusive [inhibitor, full curve, poor fit]
